{"source": "paper PMC4336329", "about": "(PLoS ONE, 2015)", "note": "The campaign covered roughly 310,000 compounds. About 2,200 (0.71%) showed an effect of 50% or more. Effects have a minus sign here. The list shows a part of the results."}
{"target": "human ether-à-go-go-related gene (hERG) potassium channel (human, UniProt Q12809)", "sequence (Q12809 whole entry, looked up)": "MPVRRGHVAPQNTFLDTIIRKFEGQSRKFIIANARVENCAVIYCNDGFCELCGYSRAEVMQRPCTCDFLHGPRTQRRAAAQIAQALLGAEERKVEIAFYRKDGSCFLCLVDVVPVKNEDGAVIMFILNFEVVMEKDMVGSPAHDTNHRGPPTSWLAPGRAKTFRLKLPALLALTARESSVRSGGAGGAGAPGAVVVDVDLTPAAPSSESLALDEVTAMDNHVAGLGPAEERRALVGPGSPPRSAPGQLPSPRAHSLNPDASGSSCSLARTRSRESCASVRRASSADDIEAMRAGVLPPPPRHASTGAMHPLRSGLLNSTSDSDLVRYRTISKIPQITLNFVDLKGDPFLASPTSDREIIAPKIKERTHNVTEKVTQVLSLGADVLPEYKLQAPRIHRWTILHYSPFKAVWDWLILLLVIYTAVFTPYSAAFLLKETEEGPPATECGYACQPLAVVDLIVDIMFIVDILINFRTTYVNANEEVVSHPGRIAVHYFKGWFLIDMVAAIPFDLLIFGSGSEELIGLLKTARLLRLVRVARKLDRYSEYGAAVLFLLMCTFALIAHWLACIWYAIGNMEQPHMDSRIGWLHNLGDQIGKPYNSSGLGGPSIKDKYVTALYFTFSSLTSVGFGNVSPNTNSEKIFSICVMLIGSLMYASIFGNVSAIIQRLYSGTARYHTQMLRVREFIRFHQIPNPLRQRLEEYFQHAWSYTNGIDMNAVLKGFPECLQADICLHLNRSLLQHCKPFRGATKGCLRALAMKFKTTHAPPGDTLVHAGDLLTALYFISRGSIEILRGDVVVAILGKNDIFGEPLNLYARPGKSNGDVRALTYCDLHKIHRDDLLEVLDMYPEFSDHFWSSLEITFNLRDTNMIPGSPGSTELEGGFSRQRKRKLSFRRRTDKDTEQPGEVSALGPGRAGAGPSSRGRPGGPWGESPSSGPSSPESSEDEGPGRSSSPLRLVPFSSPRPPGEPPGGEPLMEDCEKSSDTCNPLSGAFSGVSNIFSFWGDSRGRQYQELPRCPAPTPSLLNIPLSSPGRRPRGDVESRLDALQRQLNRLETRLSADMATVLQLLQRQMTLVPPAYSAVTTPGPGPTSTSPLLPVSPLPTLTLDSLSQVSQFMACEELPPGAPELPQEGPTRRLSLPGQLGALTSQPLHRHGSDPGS", "experiment": "primary screen, population patch clamp on CHO cells stably expressing hERG", "units": {"hERG current change (%, negative = inhibition) at 1uM": "%"}}
{"smiles": "O=C(Nc1ccc(F)cc1)c1ccc(CSc2ccccc2)o1", "hERG current change (%, negative = inhibition) at 1uM": 9.84}
{"smiles": "CS(=O)(=O)N1CCN(c2ccc([N+](=O)[O-])c(NCc3ccc(Cl)cc3)c2)CC1", "hERG current change (%, negative = inhibition) at 1uM": 9.72}
{"smiles": "CN(CC(=O)Nc1ccccc1C(F)(F)F)C(=O)COc1cccnc1[N+](=O)[O-]", "hERG current change (%, negative = inhibition) at 1uM": 11.9}
{"smiles": "CN(CC(=O)Nc1ccc(Cl)cc1)C(=O)c1cc(-c2cccs2)nn1-c1ccccc1", "hERG current change (%, negative = inhibition) at 1uM": 4.37}
{"smiles": "CN1c2ccccc2C2(C)CCCC3=Cc4cccc([N+](=O)[O-])c4OC312", "note": "(stereo not shown)", "hERG current change (%, negative = inhibition) at 1uM": 8.76}
{"smiles": "CCOC(=O)[C@H]1[C@H]2COc3ccc(Cl)cc3[C@@H]2N2C(=O)CN(Cc3ccccc3)C(=O)[C@@]12C", "hERG current change (%, negative = inhibition) at 1uM": 7.79}
{"smiles": "Cc1cccc2nc(CSc3nc4ccc([N+](=O)[O-])cc4[nH]3)c(Br)n12", "hERG current change (%, negative = inhibition) at 1uM": -7.53}
{"smiles": "CN(C(=O)c1ccc(NC(=O)Cc2cccc(NC(=O)C3CCCN(C(=O)CCc4ccccc4)C3)c2)cc1)C1CCCC1", "note": "(stereo not shown)", "hERG current change (%, negative = inhibition) at 1uM": 13.7}
{"smiles": "CCC1(C)N(O)C(C)(C)C(c2ccc(OC)cc2)=[N+]1[O-]", "note": "(stereo not shown)", "hERG current change (%, negative = inhibition) at 1uM": 12.3}
{"smiles": "Cc1cc(NC(=O)CSc2nc(-c3ccc(F)cc3)cs2)no1", "hERG current change (%, negative = inhibition) at 1uM": 21}
{"smiles": "CN1CCc2c(sc(/N=C/c3c[nH]c4ccccc34)c2C#N)C1", "hERG current change (%, negative = inhibition) at 1uM": 9.8}
{"smiles": "COC(=O)CSc1nnc(CNS(=O)(=O)c2ccc(C)cc2)n1C", "hERG current change (%, negative = inhibition) at 1uM": -1.61}
{"smiles": "CC(=O)N(C(C)=O)S(=O)(=O)c1ccc(N=NN2CCOCC2)cc1", "hERG current change (%, negative = inhibition) at 1uM": 12}
{"smiles": "CCCOc1ccc(C(=O)N/N=C/c2c[nH]c3ccc(Br)cc23)cc1", "hERG current change (%, negative = inhibition) at 1uM": 16.7}
{"smiles": "COc1ccc(N=C2SCC(=O)N2Cc2ccccc2)cc1", "hERG current change (%, negative = inhibition) at 1uM": 0.201}
{"smiles": "O=C(COC(=O)/C=C/c1cccc(C(F)(F)F)c1)NCCN1C(=O)CSC1=O", "hERG current change (%, negative = inhibition) at 1uM": 4.67}
{"smiles": "Cc1ccc(-n2[nH]c(C)c(/C=N/NC(=O)c3cccc([N+](=O)[O-])c3)c2=O)cc1C", "hERG current change (%, negative = inhibition) at 1uM": -5.98}
{"smiles": "O=c1[nH]c(=S)n(-c2ccc(Br)cc2)c2ncccc12", "hERG current change (%, negative = inhibition) at 1uM": 13.9}
{"smiles": "CC1(C)c2ccccc2N2CC(=O)N[C@@]21/C=C/C=C/c1ccccc1", "hERG current change (%, negative = inhibition) at 1uM": 12.4}
{"smiles": "CC(C)c1ccc(NC(=O)c2cc(S(=O)(=O)NCC3COc4ccccc4O3)ccc2F)cc1", "note": "(stereo not shown)", "hERG current change (%, negative = inhibition) at 1uM": 8.7}
{"smiles": "Cc1cc(C)c(C#N)c(SCS(=O)Cc2ccccc2)n1", "note": "(stereo not shown)", "hERG current change (%, negative = inhibition) at 1uM": 17.4}
{"smiles": "COc1ccc(OCCNS(=O)(=O)c2ccccc2)cc1", "hERG current change (%, negative = inhibition) at 1uM": -13}
{"smiles": "CCCCCSc1nc2c(cnn2-c2ccc(F)cc2)c(=O)[nH]1", "hERG current change (%, negative = inhibition) at 1uM": 11.5}
{"smiles": "N#C/C(=C(/O)CCl)c1nc(-c2ccccc2)cs1", "hERG current change (%, negative = inhibition) at 1uM": 7.2}
{"smiles": "CNc1c(NS(=O)(=O)c2ccc(Cl)cc2)c(=O)oc2ccccc12", "hERG current change (%, negative = inhibition) at 1uM": 12}
{"smiles": "O=C(C1CCCO1)N1CCN(c2c3c(nc4cc(-c5ccc(F)cc5)nn24)CCC3)CC1", "note": "(stereo not shown)", "hERG current change (%, negative = inhibition) at 1uM": 3.64}
{"smiles": "CC(=O)Nc1cccc(NC(=O)c2ccc3c(c2)CCN3S(C)(=O)=O)c1", "hERG current change (%, negative = inhibition) at 1uM": 14}
{"smiles": "CCC(CC)c1nnc(NC(=O)[C@@H](NC(=O)c2cccc(C)c2)C(C)C)s1", "hERG current change (%, negative = inhibition) at 1uM": 8.72}
{"smiles": "Cc1cc(=O)oc2c3c(cc(OCC(=O)NCC(=O)N[C@H](C(=O)O)C(C)C)c12)OC(C)(C)CC3", "hERG current change (%, negative = inhibition) at 1uM": 6.84}
{"smiles": "Cc1ccc(S(=O)(=O)N(C)CC(=O)Nc2ccc3c(c2)OCO3)cc1", "hERG current change (%, negative = inhibition) at 1uM": 7.45}
{"smiles": "Cc1ccccc1-c1nc(CN(Cc2c(C)nn(C)c2C)C2CC2)c(C)o1", "hERG current change (%, negative = inhibition) at 1uM": 10.2}
{"smiles": "COc1cc(/C=N\\NC(=O)C(C)(C)O)ccc1OC/C=C/c1ccccc1", "hERG current change (%, negative = inhibition) at 1uM": 13}
{"smiles": "CN(Cc1cccc(C(F)(F)F)c1)C(=O)C1CCC(=O)N(CC2CCCCC2)C1", "note": "(stereo not shown)", "hERG current change (%, negative = inhibition) at 1uM": 8.5}
{"smiles": "Cc1sc2nc(C3CC3)nc(SCC(=O)N3c4ccccc4CC3C)c2c1C", "note": "(stereo not shown)", "hERG current change (%, negative = inhibition) at 1uM": 9.05}
{"smiles": "CCOc1cc(CN2CCCC(C(=O)c3cccc(C(F)(F)F)c3)C2)ccc1O", "note": "(stereo not shown)", "hERG current change (%, negative = inhibition) at 1uM": 6.84}
{"smiles": "O=c1[nH]c(SCC2CCCCO2)nc2ccccc12", "note": "(stereo not shown)", "hERG current change (%, negative = inhibition) at 1uM": 7.98}
{"smiles": "CC(C)CC(c1nnnn1C(C)C)N1CCN(c2ccccc2)CC1", "note": "(stereo not shown)", "hERG current change (%, negative = inhibition) at 1uM": 4.06}
{"smiles": "O=C(NCCS(=O)(=O)N1CCN(c2cccc(Cl)c2)CC1)c1ccco1", "hERG current change (%, negative = inhibition) at 1uM": -14.1}
{"smiles": "Cc1cccc(NC(=O)Nc2ccc(C)c(C)c2)n1", "hERG current change (%, negative = inhibition) at 1uM": 8.52}
{"smiles": "CCCCNC(=O)c1onc(CSc2ccc(Cl)cc2)c1C(=O)NCCCC", "hERG current change (%, negative = inhibition) at 1uM": -13.2}
{"smiles": "O=C(Nc1cccnc1)C1CCCN(S(=O)(=O)c2cccc3nsnc23)C1", "note": "(stereo not shown)", "hERG current change (%, negative = inhibition) at 1uM": 8.02}
{"smiles": "Cc1cccc(OCCCC(=O)NNC(=O)CCN2CCN(c3ccccc3)CC2)c1", "hERG current change (%, negative = inhibition) at 1uM": 11.1}
{"smiles": "CCCCSc1nc2c(cnn2-c2ccccc2)c(=O)n1N", "hERG current change (%, negative = inhibition) at 1uM": -4.95}
